Experimental data taken from publication PMC4336329 (PLoS ONE, 2015).
Out of some 310,000 compounds screened, about 2,200 (0.71%) showed an effect of 50% or more. The effect is printed as a negative number. This is one part of the list.

What follows are compounds tested against human ether-à-go-go-related gene (hERG) potassium channel (human, UniProt Q12809) (assay: primary screen, population patch clamp on CHO cells stably expressing hERG).
human ether-à-go-go-related gene (hERG) potassium channel, sequence (Q12809 whole entry, looked up): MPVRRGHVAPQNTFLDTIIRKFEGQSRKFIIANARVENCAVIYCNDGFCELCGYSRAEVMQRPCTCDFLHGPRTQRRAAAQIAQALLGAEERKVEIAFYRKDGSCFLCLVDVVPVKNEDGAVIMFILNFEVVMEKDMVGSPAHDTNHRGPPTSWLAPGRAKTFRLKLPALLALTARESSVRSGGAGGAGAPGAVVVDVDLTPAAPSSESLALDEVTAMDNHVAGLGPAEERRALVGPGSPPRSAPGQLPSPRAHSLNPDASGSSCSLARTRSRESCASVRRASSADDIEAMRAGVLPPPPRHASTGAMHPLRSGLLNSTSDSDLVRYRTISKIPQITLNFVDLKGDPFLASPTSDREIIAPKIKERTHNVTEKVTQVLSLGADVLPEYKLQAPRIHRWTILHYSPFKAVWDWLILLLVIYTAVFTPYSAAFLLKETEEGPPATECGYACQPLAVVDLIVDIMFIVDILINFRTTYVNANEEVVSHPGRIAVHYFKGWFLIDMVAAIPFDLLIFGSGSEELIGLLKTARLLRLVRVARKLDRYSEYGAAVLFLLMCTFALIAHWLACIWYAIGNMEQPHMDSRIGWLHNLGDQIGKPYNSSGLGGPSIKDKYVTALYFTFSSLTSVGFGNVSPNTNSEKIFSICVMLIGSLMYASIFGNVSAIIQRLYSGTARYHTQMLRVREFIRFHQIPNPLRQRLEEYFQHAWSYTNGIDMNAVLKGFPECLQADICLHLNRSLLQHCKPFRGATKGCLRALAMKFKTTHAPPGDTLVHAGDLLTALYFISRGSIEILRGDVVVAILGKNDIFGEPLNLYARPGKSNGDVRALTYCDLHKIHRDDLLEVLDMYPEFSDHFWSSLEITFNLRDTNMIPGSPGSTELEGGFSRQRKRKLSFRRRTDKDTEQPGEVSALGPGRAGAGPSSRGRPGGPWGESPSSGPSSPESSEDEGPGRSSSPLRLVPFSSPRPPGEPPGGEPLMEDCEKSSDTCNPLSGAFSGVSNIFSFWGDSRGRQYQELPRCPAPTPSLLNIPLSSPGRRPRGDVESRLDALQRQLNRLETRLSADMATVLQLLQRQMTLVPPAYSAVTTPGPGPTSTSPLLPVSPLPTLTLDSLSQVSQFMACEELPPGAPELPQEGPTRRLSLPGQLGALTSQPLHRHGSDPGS
For `COc1ccc(OC)c(-n2c(O)cnc2Nc2nc(C)cc(C)n2)c1`, the “hERG current change (%, negative = inhibition) at 1uM” value was -0.817%.
`COc1ccc(NC(=O)C2(N(C(=O)Cn3nnnc3N)c3ccc(OC)cc3)CCCCC2)cc1` was tested, and the “hERG current change (%, negative = inhibition) at 1uM” value was 17.1%.
In the case of `CCCc1ccc(OCCNC(C)=O)cc1`, the “hERG current change (%, negative = inhibition) at 1uM” value was 8.29%.
With `O=C(Nc1ccc(O)cc1)c1cc2ccccc2c(=O)s1` the “hERG current change (%, negative = inhibition) at 1uM” value was 8.99%.
For `CCc1ccc(/C=C2/Sc3ccccc3N(CC(=O)NCC3CCCO3)C2=O)cc1` (stereo not shown), the “hERG current change (%, negative = inhibition) at 1uM” value was 3.26%.
`O=C(CN1C(=O)C2CCCCC2C1=O)Nc1ccccc1C(=O)O` (stereo not shown) was tested, and the “hERG current change (%, negative = inhibition) at 1uM” value was 9.86%.
For `CCN(CC)S(=O)(=O)c1ccc(C(=O)OCn2c(SC)nnc(C)c2=O)cc1`, the “hERG current change (%, negative = inhibition) at 1uM” value was -2.56%.
With `CC(C(=O)c1c[nH]c(C(N)=O)c1)c1ncc(C(F)(F)F)cc1Cl` (stereo not shown) the “hERG current change (%, negative = inhibition) at 1uM” value was 12.6%.
With `Cc1nnc2ccc(-c3ccc(NC(=O)c4ccc(Cl)nc4)cc3)nn12` the “hERG current change (%, negative = inhibition) at 1uM” value was -6.7%.
`Cn1c(=O)c2c(nc(CN3CCOCC3)n2CCCc2ccccc2)n(C)c1=O` was tested, and the “hERG current change (%, negative = inhibition) at 1uM” value was 16.9%.
With `CCSc1nn2c(=O)c3ccccc3nc2s1` the “hERG current change (%, negative = inhibition) at 1uM” value was 8.17%.
In the case of `C=CCNC(=O)c1onc(CSc2ccc(OC)cc2)c1C(=O)O`, the “hERG current change (%, negative = inhibition) at 1uM” value was 14.4%.
In the case of `CCOC(=O)C1(Cc2cccc(OC)c2)CCCN(S(=O)(=O)CC)C1` (stereo not shown), the “hERG current change (%, negative = inhibition) at 1uM” value was 23.6%.
In the case of `Cc1cccc(C(=O)NNC(=O)/C=C/C(=O)O)c1`, the “hERG current change (%, negative = inhibition) at 1uM” value was 14.2%.
`CCOc1ccc(-n2c(SCC(=O)Nc3ccc(C(=O)O)cc3)nc3ccccc3c2=O)cc1` was tested, and the “hERG current change (%, negative = inhibition) at 1uM” value was 10.4%.
With `Cn1ncc2c(Nc3ccc(Br)cc3)nc(Nc3ccc(Br)cc3)nc21` the “hERG current change (%, negative = inhibition) at 1uM” value was 7.09%.
With `CCOC(=O)C1=C(C)Nc2nc(SC)nn2C1c1ccc(C(=O)OC)cc1` (stereo not shown) the “hERG current change (%, negative = inhibition) at 1uM” value was 11.4%.
`CCOC(=O)c1ccc(/C=N/O)[n+](Cc2ccccc2)c1.[Br-]` was tested, and the “hERG current change (%, negative = inhibition) at 1uM” value was 12.9%.
For `CC(=O)N/N=C/c1ccc(OCCOc2ccc(Br)cc2)cc1`, the “hERG current change (%, negative = inhibition) at 1uM” value was 2.27%.
For `S=c1[nH]nc(C2(c3ccccc3)CCCC2)o1`, the “hERG current change (%, negative = inhibition) at 1uM” value was -5.77%.
With `Cc1cc2n(n1)SC(Nc1ccc(F)cc1)N2` (stereo not shown) the “hERG current change (%, negative = inhibition) at 1uM” value was -16.2%.
`O=C(NNC(=S)NC(=O)c1cccnc1)c1ccc(Cl)cc1` was tested, and the “hERG current change (%, negative = inhibition) at 1uM” value was 16.5%.
For `Cc1noc(NS(=O)(=O)c2ccc(NC(=O)c3nn(-c4ccc(F)cc4)ccc3=O)cc2)c1C`, the “hERG current change (%, negative = inhibition) at 1uM” value was -11.6%.
In the case of `O=C(/C=C/c1ccc(Cl)cc1Cl)N(Cc1ccc(Cl)cc1)C1CCS(=O)(=O)C1` (stereo not shown), the “hERG current change (%, negative = inhibition) at 1uM” value was 13.4%.
`COc1cc(NC(=O)C(=O)NCCN(C)C)c(OC)cc1Cl` was tested, and the “hERG current change (%, negative = inhibition) at 1uM” value was 16.6%.
